# The supplement of paper PMC3334620
# Whole data set: some 33,000 sequences, median “E-score (-0.5 to 0.5)” near -0.054, cut for the highest 2% near 0.35. The list shows a part of the results.
# Biological target: T1, Stb5 (UniProt P38699)
# T1 sequence: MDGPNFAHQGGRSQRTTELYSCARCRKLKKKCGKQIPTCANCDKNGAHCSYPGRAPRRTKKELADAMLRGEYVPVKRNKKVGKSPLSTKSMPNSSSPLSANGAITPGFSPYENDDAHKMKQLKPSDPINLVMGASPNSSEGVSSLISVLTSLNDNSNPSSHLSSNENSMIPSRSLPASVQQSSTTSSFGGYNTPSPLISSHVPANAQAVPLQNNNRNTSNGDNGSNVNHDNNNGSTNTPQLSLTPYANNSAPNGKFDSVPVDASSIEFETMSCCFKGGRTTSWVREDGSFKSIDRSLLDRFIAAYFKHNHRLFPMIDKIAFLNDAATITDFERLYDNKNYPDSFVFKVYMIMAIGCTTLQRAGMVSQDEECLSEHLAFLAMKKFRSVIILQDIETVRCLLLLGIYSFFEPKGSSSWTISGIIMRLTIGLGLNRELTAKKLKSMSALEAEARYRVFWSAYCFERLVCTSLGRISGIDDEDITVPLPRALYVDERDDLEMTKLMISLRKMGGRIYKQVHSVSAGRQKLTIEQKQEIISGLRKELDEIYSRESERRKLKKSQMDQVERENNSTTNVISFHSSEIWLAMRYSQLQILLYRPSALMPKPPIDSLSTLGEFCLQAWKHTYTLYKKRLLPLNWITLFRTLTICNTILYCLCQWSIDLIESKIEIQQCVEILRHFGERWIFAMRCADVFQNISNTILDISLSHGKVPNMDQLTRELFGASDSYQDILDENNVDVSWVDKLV
# Experiment: PBM E-score (8-mer binding enrichment) (E-score (-0.5 to 0.5)); higher = stronger / more preferred TF binding; most listed sequences are background and not binding sites
# Conditions: protein concentration: 200 nM; construct: GST-full length
# Procedure, shortened: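 Full-length yeast transcription factors or their DNA-binding domains, GST-tagged and expressed with PURExpress, were applied at about 100-200 nM to universal all-10-mer Agilent arrays. These arrays had been made double-stranded by primer extension on fresh or once-stripped slides. Detection used fluorescent anti-GST, normalisation used masliner, and E-scores for ungapped eight-base words pooled with reverse complements came from the Universal PBM Analysis Suite.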
row,Sequence,PBM E-score
1,CATTGGAA,0.0761
2,ACCATCAG,0.0204
3,CAAAGTAG,-0.164
4,AATCTCCA,0.0536
5,CGGGGGAC,0.136
6,ACTATAGG,-0.197
7,AGGCAGAC,0.0225
8,GACTTCTA,-0.177
9,ACTCGACT,-0.224
10,CCTAAGTC,0.00031
11,AGTGAAAT,-0.257
12,ACGGTGGA,0.0329
13,GAGCCCAC,-0.101
14,CCTGAACA,0.00453
15,CTGGCCTC,-0.252
16,CCTCTAAG,-0.195
17,GGGCGTAA,0.156
18,ATACGTAC,-0.0769
19,ATTACAGA,0.0315
20,AAGAAGTG,-0.136
21,CGTTCATC,0.0696
22,CATGTCTC,0.148
23,CAAGGTAC,-0.205
24,CGTCTGAG,0.0237
25,ATAATTGC,0.209

row,Sequence,PBM E-score
1,CAACGTAA,-0.18
2,CGATAAGA,-0.0622
3,AGAGTTGG,-0.275
4,GGTGGCAA,-0.0431
5,CCCCCGTA,0.063
6,GTCGGGAA,0.289
7,TACTTCAA,-0.181
8,CTACTGAA,-0.167
9,CGGGCAAG,0.004
10,CCTACCTC,-0.101
11,ATGACCCA,-0.309
12,CCCATAGC,-0.129
13,CTATATTA,0.158
14,CCCTGGAG,-0.234
15,ATTGTAGG,-0.231
16,AGGGGACA,-0.232
17,CCAAATTC,-0.154
18,GGGGCGTA,0.0321
19,CCGGCTGA,0.0822
20,CACTACCG,0.019
21,ACTTTGTC,-0.145
22,CCAGCTCA,-0.343
23,ATTGACCG,0.255
24,CCCAGATA,-0.137
25,ATCTTATA,-0.076

row,Sequence,PBM E-score
1,ACCATTCA,-0.173
2,ACAGCCGC,0.165
3,CAACGCGG,0.194
4,ATAGAGTA,-0.0125
5,TCGACACA,-0.0901
6,GGTGCGAA,0.259
7,GGTTCAAC,0.00115
8,AAGATAGT,-0.107
9,GAACACGA,-0.214
10,ACAAGCCG,0.0342
11,CACTACTG,-0.269
12,GAAGGCCA,-0.142
13,AATAACAA,-0.0395
14,CCAAGCCA,-0.174
15,AAGAAAAG,-0.108
16,TCGTACAA,-0.211
17,TCCGGTCA,0.325
18,AATGTGCT,-0.0738
19,AGGGCCTA,0.0959
20,CTGGCATC,-0.226
21,ACGCTTTC,-0.205
22,AATCCGCA,0.156
23,CTGGCGTA,-0.209
24,CTATGGTC,-0.0974
25,AAGGTATC,-0.0144

row,Sequence,PBM E-score
1,ATACACGC,-0.0452
2,ATCGGGTG,0.155
3,CTGCCCCA,-0.0669
4,GCTATGAA,-0.0586
5,GAAACTAA,-0.0553
6,ATTGTACG,-0.218
7,GTCCAGTA,0.0107
8,AACACAAT,-0.221
9,CGCGCAAA,0.0122
10,AAGGGCCA,-0.312
11,TCCACTAA,0.0397
12,CGCCCGAG,0.129
13,ATAACATA,0.136
14,ACTGCGTA,-0.0892
15,CTGGGTAA,-0.162
16,ACTCCTAA,-0.184
17,AATGGCCA,-0.173
18,AGCTTTCA,-0.131
19,ACCCCGAT,0.441
20,AAGTGCTA,-0.112
21,CGACGGTC,0.315
22,GGTTGGAC,-0.0385
23,CAAACAGC,0.0778
24,AGCGTCGA,-0.188
25,CACCTTGC,-0.217

row,Sequence,PBM E-score
1,TGGCTACA,-0.144
2,AAGGGAGA,-0.357
3,CAAACAAA,-0.202
4,GATCATGA,0.0141
5,CTCATCAC,-0.162
6,GCTGCATA,-0.136
7,GCCGTTAC,0.247
8,CTCCTGTC,-0.26
9,ATAAGGAG,0.0498
10,GGTGGCAC,0.0756
11,CTCCATCA,0.0765
12,AATGGGCA,-0.356
13,GCCACAGA,0.0915
14,CAACTATC,-0.141
15,CGAAACCG,0.161
16,CTGTGCAC,-0.176
17,CAACAAGG,-0.219
18,AAAAATGA,-0.0682
19,AGTCAAGC,-0.3
20,ACGCGCCA,-0.191
21,ATTTTTAA,0.268
22,CAAAGGAC,-0.166
23,CGATGGTA,0.00643
24,GCAACACC,0.267
25,CCACCCAA,0.0149

row,Sequence,PBM E-score
1,GACGATGC,-0.0743
2,AATAACGG,0.294
3,TCGCGAGA,-0.0702
4,AGCTACGG,0.0512
5,GACGGACC,0.316
6,GCTATGGA,-0.0548
7,AGGGAACT,-0.079
8,ATGAATAA,-0.00507
9,CGCGCATC,0.0394
10,ACGCAGAT,0.0541
11,CTCCTTCC,-0.25
12,CAAGGGCG,-0.0091
13,ATCTGGGA,-0.219
14,CAAGATTC,-0.0416
15,ACGCTTGG,-0.319
16,CTGCTTGA,-0.286
17,AGATAGAC,-0.0476
18,GAATCAGA,-0.137
19,ATATATGC,0.205
20,AGCTAACT,-0.0801
21,ACAGTATC,-0.244
22,ATCACGTC,0.00329
23,AGACTGTA,-0.142
24,ACTGTCGG,0.33
25,AATGGTGG,-0.261

row,Sequence,PBM E-score
1,AATGAAAA,-0.0147
2,TCCTGAAA,-0.158
3,CCGTCCAC,0.16
4,AGGTTATC,-0.0681
5,CTACGATA,-0.261
6,GTGGCGCA,-0.139
7,GCTCTAAA,-0.194
8,ATAAAAGA,0.0611
9,CCTATTCC,0.0769
10,GCGTCGGA,0.345
11,AGATCGGG,0.279
12,AATGATTG,-0.226
13,AGGTTCGA,-0.0817
14,ACAAAGCC,0.0182
15,AGGATCCG,0.0973
16,ATGTCAAC,-0.0658
17,TAAACACA,-0.181
18,TCCAGCAA,-0.319
19,AGTCGGAA,0.221
20,GGGTGACA,0.0889
21,CGGTTTAG,0.091
22,AGCAGAAT,-0.144
